The values below come from the supplement of paper PMC9446081.

Screen size: about 39,000 compounds; about 220 (0.56%) showed activity. The list shows a part of the results.
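Note: static incubation at 37 °C against the wild-type strain, values averaged over two biological replicates.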

The test system of this experiment is Escherichia coli K-12 BW25113. Put plainly: relative growth (OD600 normalised to plate interquartile mean) (fraction); higher = less growth inhibition, active = 0.2 or less. Particulars: 50 µM; LB; incubation time: overnight (16-24 h).
Take `C[C@@H]1CN([C@H](C)CO)C(=O)c2cccc(NC(=O)c3ccc(-c4nccs4)cc3)c2O[C@@H]1CN(C)Cc1ccc(Oc2ccccc2)cc1`: the relative growth is inactive: 1.03.

For the molecule `C[C@@H]1CN([C@H](C)CO)S(=O)(=O)c2ccc(C#CCN(C)C)cc2O[C@@H]1CN(C)Cc1ccccn1`, the relative growth was inactive: 1.

In the case of `COc1ccc(S(=O)(=O)Nc2cccc3c2O[C@@H](CN(C)S(=O)(=O)c2cn(C)cn2)[C@H](C)CN([C@H](C)CO)C3=O)cc1`, the relative growth is inactive: 1.

For the molecule `C[C@H](CO)N1C[C@H](C)[C@H](CN(C)C(=O)Nc2cccc3ccccc23)OCCCC[C@H](C)Oc2ccc(NS(=O)(=O)c3ccc(Cl)cc3)cc2C1=O`, the relative growth is inactive: 1.04.

With `C[C@H](CO)N1C[C@H](C)[C@@H](CN(C)S(=O)(=O)c2ccc(F)cc2)Oc2c(NC(=O)c3cnccn3)cccc2C1=O`, the relative growth was inactive: 0.996.

For `C[C@@H]1CN([C@@H](C)CO)C(=O)c2cccc(NC(=O)Nc3ccc(F)cc3)c2O[C@@H]1CN(C)Cc1ccc(Oc2ccccc2)cc1`, the relative growth was inactive: 1.01.

As to `O=C(Nc1ccc(Br)cc1)c1ccc(N2C(=O)c3ccc(C(=O)Nc4ccc(Br)cc4)cc3C2=O)cc1`, the relative growth was inactive: 1.03.

`C[C@@H]1CN([C@@H](C)CO)C(=O)c2cc(C#CCN(C)C)cnc2O[C@H]1CN(C)C(=O)CCN1CCCCC1`: the relative growth was inactive: 0.996.

For `COCCOC(=O)N1C(=O)[C@@]2(c3cc(C#CCNC(N)=O)ccc31)[C@H](c1ccccc1OCCO)N1[C@H](c3ccccc3)[C@H](c3ccccc3)OC(=O)[C@H]1[C@@H]2C(N)=O`, the relative growth was inactive: 0.996.

As to `C[C@H]1CCCCO[C@H](CN(C)Cc2ccc3c(c2)OCO3)[C@@H](C)CN([C@@H](C)CO)C(=O)c2cc(NC(=O)Nc3ccc(C(F)(F)F)cc3)ccc2O1`, the relative growth was inactive: 1.

Regarding `COc1ccc([Si](C)(C)[C@@H]2[C@@H](CCn3cc(CCO)nn3)O[C@]3(C(=O)N(Cc4cccc(N5C(=O)c6cccc7cccc5c67)c4)c4ccccc43)[C@H]2C)cc1`, the relative growth was inactive: 1.02.

In the case of `C[C@@H]1CN([C@@H](C)CO)C(=O)c2cc(NS(C)(=O)=O)ccc2O[C@@H]1CN(C)Cc1ccc(C(=O)O)cc1`, the relative growth is inactive: 0.978.

Take `Cc1ccc(S(=O)(=O)Nc2ccc3c(c2)C(=O)N([C@@H](C)CO)C[C@@H](C)[C@@H](CN(C)C(=O)NC2CCCCC2)OCCCC[C@H](C)O3)cc1`: the relative growth was inactive: 0.983.

Turning to `COCC(=O)N(C)C[C@@H]1Oc2cc(-c3ccc(C#N)cc3)ccc2S(=O)(=O)N([C@H](C)CO)C[C@@H]1C`, the relative growth is inactive: 0.978.

As to `C[C@@H]1CN([C@H](C)CO)C(=O)c2cccc(NS(=O)(=O)c3cn(C)cn3)c2O[C@H]1CN(C)S(=O)(=O)c1cn(C)cn1`, the relative growth was inactive: 0.943.

On to `C[C@H]1CN([C@@H](C)CO)C(=O)Cc2cc(NC(=O)Nc3ccc(F)cc3)ccc2O[C@@H]1CN(C)Cc1ccc(Oc2ccccc2)cc1`, for which the relative growth was inactive: 1.06.

As to `COc1ccc(CN(C)C[C@@H]2OCCCC[C@@H](C)Oc3ccc(NC(=O)c4ccncc4)cc3C(=O)N([C@@H](C)CO)C[C@@H]2C)cc1`, the relative growth is inactive: 0.996.

As for `O=C(NCCN1CCCC1)[C@H]1N[C@H]2c3ccc(-c4ccccc4)c(=O)n3C[C@H]2[C@@H]1CO`, the relative growth was inactive: 0.982.

As for `C[C@H]1CN([C@@H](C)CO)C(=O)Cc2cc(NS(=O)(=O)c3cccs3)ccc2O[C@@H]1CN(C)S(C)(=O)=O`, the relative growth was inactive: 1.01.

With `COc1cccc(S(=O)(=O)N(C)C[C@@H]2Oc3ncc(C#CCC(C)C)cc3C(=O)N([C@H](C)CO)C[C@H]2C)c1`, the relative growth was inactive: 1.02.

For `NC(=O)C1CCOCC1`, the relative growth is inactive: 0.985.

In the case of `C[C@H](CO)N1C[C@H](C)[C@H](CN(C)Cc2cncnc2)Oc2ncc(C#C[C@@H](C)O)cc2C1=O`, the relative growth was inactive: 0.981.

For the molecule `C[C@H](CO)N1C[C@H](C)[C@H](CN(C)CC2CCCCC2)Oc2ccc(NC(=O)Nc3ccccc3)cc2C1=O`, the relative growth was inactive: 0.97.

In the case of `CC(C)NCC(O)COc1ccc(COCCOC(C)C)cc1.O=C(O)C=CC(=O)O` (configuration not stated), the relative growth is inactive: 1.04.

`O=C(C[C@H]1CC[C@H]2[C@@H](COC[C@H](O)CN2C(=O)Nc2ccc(Cl)cc2)O1)NCCc1ccncc1`: the relative growth was inactive: 0.882.

As for `O=C(NO)c1ccc(C(=O)N/N=C/[C@H](O)[C@@H](O)[C@H](O)[C@H](O)CO)cc1`, the relative growth was inactive: 1.02.

For `CC(C)c1ccccc1Cc1cc(C(=O)Nc2ccc(S(=O)(=O)c3ccccc3C(C)(C)C)cc2)c(O)c(O)c1O`, the relative growth was inactive: 1.1.

In the case of `C[C@H](CO)N1C[C@H](C)[C@@H](CN(C)Cc2ccccc2F)Oc2cc(C#CC3CC3)ccc2S1(=O)=O`, the relative growth is inactive: 0.927.

Turning to `C[C@@H]1CN([C@H](C)CO)C(=O)c2cc(NC(=O)NC3CCCCC3)ccc2O[C@@H](C)CCCCO[C@H]1CN(C)Cc1ccccc1`, the relative growth is inactive: 0.889.

On to `C=C(C)Cn1c(N2CCC(C(N)=O)CC2)nc2c1c(=O)n(C)c(=O)n2C`, for which the relative growth is inactive: 0.994.

Regarding `C[C@@H]1CN([C@@H](C)CO)C(=O)c2c(c3ccccc3n2C)-c2ccccc2CO[C@@H]1CN(C)Cc1ccc2c(c1)OCO2`, the relative growth was inactive: 0.992.

For the molecule `C[C@H]1CN([C@@H](C)CO)C(=O)c2cc(NS(=O)(=O)c3cn(C)cn3)ccc2O[C@@H]1CN(C)Cc1ccc(C(=O)Nc2ccccc2N)cc1`, the relative growth was inactive: 0.988.

Consider `Cc1noc(C)c1NC(=O)N(C)C[C@@H]1OCCCC[C@H](C)Oc2ccc(NS(=O)(=O)c3ccccc3)cc2C(=O)N([C@@H](C)CO)C[C@@H]1C`, for which the relative growth was inactive: 1.04.

Regarding `COC(=O)C12CC3(C(=O)OC)CC(C(=O)OC)(CC(C(=O)OC)(C1)C3=O)C2=O`, the relative growth is inactive: 1.02.

For the molecule `COc1cccc(S(=O)(=O)N(C)C[C@@H]2OCc3cnnn3CCCC(=O)N([C@H](C)CO)C[C@H]2C)c1`, the relative growth was inactive: 1.01.

As for `CSC[C@H]1O[C@H](n2ccc3c(N)ncnc32)[C@@H](O)[C@H]1O`, the relative growth is inactive: 1.

Turning to `C[C@@H]1CN([C@@H](C)CO)C(=O)c2cc(NC(=O)Cc3ccccc3)ccc2O[C@@H](C)CCCCO[C@H]1CN(C)C(=O)Cc1ccccc1`, the relative growth was inactive: 1.01.
